Patent publication US7041785B1, “B1-bradykinin receptor antagonists and use thereof” (Université de Sherbrooke, priority 1996, dated 2006)
Not every detail of the peptide structures is certain; ends, links or a residue may be inferred. Non-standard residues stand in square brackets, D forms with d. Residues, ends and D or L forms follow the SMILES beside them. Hyp = O=C(O)[C@@H]1C[C@@H](O)CN1; dTic = O=C(O)[C@H]1Cc2ccccc2CN1

How the values were obtained:
B2 receptor [1] = target: T1, B2 receptor (Cavia porcellus, UniProt O70526); settings: residual agonistic activity at 10 μg/mL in comparison with BK
T1 sequence (O70526 1-372): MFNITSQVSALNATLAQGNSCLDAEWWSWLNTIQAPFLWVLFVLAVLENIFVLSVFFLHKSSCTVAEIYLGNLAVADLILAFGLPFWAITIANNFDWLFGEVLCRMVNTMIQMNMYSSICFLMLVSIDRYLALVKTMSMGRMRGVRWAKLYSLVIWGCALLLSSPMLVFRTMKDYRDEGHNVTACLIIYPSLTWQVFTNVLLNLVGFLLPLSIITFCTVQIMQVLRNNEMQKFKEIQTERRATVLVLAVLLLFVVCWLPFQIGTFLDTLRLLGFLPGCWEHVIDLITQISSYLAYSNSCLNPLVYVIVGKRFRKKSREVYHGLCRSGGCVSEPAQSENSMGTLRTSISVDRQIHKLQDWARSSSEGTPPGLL
Description: (§1) Tissues were taken from New Zealand white rabbits (1.5–2.5 kg) and Dunken Hartley guinea pigs (250–350 g) of either sex, killed by stunning and exsanguination. Umbilical cords were taken from healthy women 22–40 years old after spontaneous delivery at term. The rabbit jugular vein (RbJV), the guinea pig ileum (GPI), two preparations containing B2 receptors, the rabbit aorta (RbA) (B1 receptor) and the human umbilical vein (HUV), a mixed preparation containing both B1 and B2 receptors^10, were used. Helical strips of RbJV treated with 1 μmol/L of captopril to avoid peptide degradation by the angiotensin-converting enzyme (ACE), alias kininase II were prepared according to Gaudreau et al.^11 Helical strips of RbA devoid of endothelium were prepared according to Furchgott and Bhadrakom^12. Longitudinal segments of GPI were prepared with the procedure described by Rang^13. Helical strips of HUV were prepared according to Gobeil et al.^10. The tissues were suspended in 10-ml organ baths containing warm (37EC), oxygenated (95% O2–5% CO2) Krebs solution of the following composition in mmol/L; NaCl: 118.1; KCl: 4.7; CaCl26H2O: 2.5; KH2PO4: 1.2; MgSO47H2O: 1.18; NaHCO3: 25.0 and D-Glucose: 5.5. The RbA and the HUV were stretched with an initial tension of 2 g, whereas the RbJV and the GPI were loaded with 0.5 g. Changes of tension produced by the various agents were measured with Grass isometric transducers (model FT 03C, Grass Instrument Co., Quincy, Mass.). […] Before testing the drugs, the tissues were allowed to equilibrate for 60–120 min during which time the tissues were repeatedly washed and the tension readjusted every 15 min.
(§2) At the beginning of each experiment, a submaximal dose of bradykinin (BK) (9 nmol/L), was applied repeatedly on the RbJV, the GPI or the HUV to ensure that tissues responded with stable contractions. […] A similar protocol was used for the HUV.
(§3) Repeated applications of a singl and double concentration of BK (on RbJV, GPI and HUV) and of desArg^9BK (RbA and HUV) were made in the absence and in presence of the various peptides to evaluate their apparent affinities as antagonists, in terms of pA2 (-log10 of the molar concentration of antagonist that reduces the effect of a double concentration of agonist to that of a single one)^14. The antagonists were applied 10 min before measuring the myotropic effects of either BK (the B2 receptor agonist) or desArg^9BK (the B1 receptor agonist). […] All kinin antagonists were initially applied to tissues at concentration of 10 μg/mL to measure their potential agonistic activities (α^E) in comparison with BK (in the B2 receptor preparations) or desArg^9BK (in the B1 receptor preparations).

B2 receptor [2] = target: T2, B2 receptor (Oryctolagus cuniculus, UniProt Q28642); settings: residual agonistic activity at 10 μg/mL in comparison with BK
T2 sequence (Q28642 1-367): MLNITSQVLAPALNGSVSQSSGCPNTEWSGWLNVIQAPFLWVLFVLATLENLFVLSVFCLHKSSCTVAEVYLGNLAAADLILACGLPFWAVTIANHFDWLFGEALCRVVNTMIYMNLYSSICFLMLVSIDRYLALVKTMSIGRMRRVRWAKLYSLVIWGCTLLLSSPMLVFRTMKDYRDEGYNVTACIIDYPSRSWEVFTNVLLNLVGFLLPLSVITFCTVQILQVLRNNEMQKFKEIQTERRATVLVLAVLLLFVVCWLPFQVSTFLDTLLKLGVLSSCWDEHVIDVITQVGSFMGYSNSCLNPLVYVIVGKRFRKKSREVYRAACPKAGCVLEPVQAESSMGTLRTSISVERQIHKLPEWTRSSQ
Description: as §1, §2, §3

human B1 receptor = target: T3, human B1 receptor (Homo sapiens, UniProt P46663); settings: residual agonistic activity at 10 μg/mL
T3 sequence (P46663 1-353): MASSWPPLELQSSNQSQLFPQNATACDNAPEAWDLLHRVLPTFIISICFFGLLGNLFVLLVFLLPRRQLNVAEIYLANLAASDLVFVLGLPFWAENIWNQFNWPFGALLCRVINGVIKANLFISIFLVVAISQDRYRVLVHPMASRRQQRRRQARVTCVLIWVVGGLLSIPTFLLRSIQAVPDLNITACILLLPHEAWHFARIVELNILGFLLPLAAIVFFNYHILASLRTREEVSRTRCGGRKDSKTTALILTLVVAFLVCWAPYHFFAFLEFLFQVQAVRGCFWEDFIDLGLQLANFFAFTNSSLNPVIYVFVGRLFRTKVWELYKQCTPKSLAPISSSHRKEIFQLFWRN
Description: as §1, §2, §3

[3] = tested on: streptozotocin-induced diabetic mice; assay: Streptozotocin-induced type I diabetes in C57BL/Ks mdb mice; settings: STZ mice; for Urinary kallikrein excretion / Urinary nitrite excretion / Urinary protein excretion (proteinuria): day 13; for Urinary volume (diuresis, water excretion): day 13, 24 h urine; for Glycemia (plasma glucose): s.c. treatment 10 days, (Leu8)desArg9BK 300 ug/Kg twice a day, HOE140 500 ug/Kg per day
ACE = target: T4, ACE (Oryctolagus cuniculus, UniProt P12822); assay: Test as inhibitors of ACE (degradation of desArg9BK by the enzyme); format: biochemical; settings: concentrations up to 10^-4 M; personal communication
T4 sequence (P12822 34-1310): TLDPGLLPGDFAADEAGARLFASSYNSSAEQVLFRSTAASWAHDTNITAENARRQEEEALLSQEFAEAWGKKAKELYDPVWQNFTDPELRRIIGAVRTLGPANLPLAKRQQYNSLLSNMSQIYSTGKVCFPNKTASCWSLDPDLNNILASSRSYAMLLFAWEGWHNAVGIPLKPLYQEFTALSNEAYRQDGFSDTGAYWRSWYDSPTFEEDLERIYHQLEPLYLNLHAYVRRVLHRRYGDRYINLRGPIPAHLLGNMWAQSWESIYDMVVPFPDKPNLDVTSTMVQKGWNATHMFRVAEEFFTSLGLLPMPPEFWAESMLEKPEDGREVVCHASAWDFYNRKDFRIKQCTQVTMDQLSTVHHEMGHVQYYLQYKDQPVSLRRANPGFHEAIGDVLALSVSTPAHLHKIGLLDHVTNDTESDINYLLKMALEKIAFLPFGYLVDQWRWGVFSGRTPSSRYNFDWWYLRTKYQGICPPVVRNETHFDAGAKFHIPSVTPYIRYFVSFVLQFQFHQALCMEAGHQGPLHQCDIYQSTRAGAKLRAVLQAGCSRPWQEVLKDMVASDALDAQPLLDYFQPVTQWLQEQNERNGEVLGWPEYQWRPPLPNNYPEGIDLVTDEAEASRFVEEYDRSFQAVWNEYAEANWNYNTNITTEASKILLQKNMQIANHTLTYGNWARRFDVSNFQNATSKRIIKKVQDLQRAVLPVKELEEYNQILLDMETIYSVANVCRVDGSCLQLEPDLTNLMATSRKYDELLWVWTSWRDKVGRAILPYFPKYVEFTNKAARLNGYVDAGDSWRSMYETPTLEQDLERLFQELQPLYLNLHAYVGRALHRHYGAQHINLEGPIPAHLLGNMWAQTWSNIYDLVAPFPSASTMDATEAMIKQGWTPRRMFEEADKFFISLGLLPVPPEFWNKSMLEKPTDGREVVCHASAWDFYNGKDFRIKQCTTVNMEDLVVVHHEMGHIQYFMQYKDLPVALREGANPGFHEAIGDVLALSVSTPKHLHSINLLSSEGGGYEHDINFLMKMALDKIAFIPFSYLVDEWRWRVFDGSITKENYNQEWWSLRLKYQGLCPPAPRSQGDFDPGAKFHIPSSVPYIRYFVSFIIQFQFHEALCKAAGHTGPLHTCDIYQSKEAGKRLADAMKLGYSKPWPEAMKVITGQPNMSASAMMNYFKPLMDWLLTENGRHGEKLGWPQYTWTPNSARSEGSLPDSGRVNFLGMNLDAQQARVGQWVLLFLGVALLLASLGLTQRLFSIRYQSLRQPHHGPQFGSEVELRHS

BK-B1 receptor = target: T5, BK-B1 receptor (Rattus norvegicus, UniProt P97583); assay: Isometric contraction of portal vein segments from STZ-induced diabetic rats; format: cell-based
T5 construct: Segments of the portal vein (a known preparation for BK studies) from these rats were mounted in organ baths; from tissue; host or cells: rat portal vein segments (STZ-diabetic and normal rats)
T5 sequence (P97583 1-337): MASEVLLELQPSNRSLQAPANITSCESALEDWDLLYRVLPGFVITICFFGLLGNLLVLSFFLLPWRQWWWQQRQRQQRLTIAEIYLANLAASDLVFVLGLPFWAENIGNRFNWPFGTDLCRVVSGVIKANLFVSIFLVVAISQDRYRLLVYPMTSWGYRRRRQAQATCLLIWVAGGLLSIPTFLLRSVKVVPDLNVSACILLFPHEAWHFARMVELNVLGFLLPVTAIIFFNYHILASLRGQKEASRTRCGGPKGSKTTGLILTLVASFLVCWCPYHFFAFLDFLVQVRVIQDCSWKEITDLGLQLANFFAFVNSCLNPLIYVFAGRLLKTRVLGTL
Description: Capillary permeability is known to be selectively augmented in the streptozotocin (STZ) diabetic rat model^49. The vascular BK receptors in the STZ-induced diabetic rat was examined. Segments of the portal vein (a known preparation for BK studies) from these rats were mounted in organ baths for isometric contraction studies. The response to desArg^9BK, a specific BK–B1 receptor agonist, was enhanced by 118% in the diabetic tissue, compared to normal portal veins (0.48 vs 0.22g: P<0.001). […] HOE140, the BK–B2 receptor antagonist, had no effect on the diabetic portal vein abnormality. Evans blue (EB: 20 mg/kg), a marker of albumin extravasation, was injected to unanesthetized diabetic rats. […] Therefore, it was concluded that post-capillary hypercontractility to BK (via its B1 receptor) forces EB extravasation, and likely contributed to the diabetic vasculopathy.

| SMILES | G.P.I. α^E (B2 receptor [1]) | Rb.J.V. α^E (B2 receptor [2]) | Human umbilical vein B1 receptor α^E (human B1 receptor) | Urinary kallikrein excretion [3] | Urinary nitrite excretion [3] | Urinary protein excretion (proteinuria) [3] | Urinary volume (diuresis, water excretion) [3] | Glycemia (plasma glucose) [3] | Interaction with the degradation of desArg9BK by ACE (tested as inhibitors of ACE) (ACE) | Effect on enhanced sensitivity to desArg9BK of diabetic portal vein (BK-B1 receptor) | Contractile response of portal vein (BK-B1 receptor; diabetic tissue) [g] | Contractile response of portal vein (BK-B1 receptor; normal portal veins) [g] |
| --- | --- | --- | --- | --- | --- | --- | --- | --- | --- | --- | --- | --- |
| CC(C)C[C@H](NC(=O)[C@@H]1CCCN1C(=O)[C@H](CO)NC(=O)[C@H](Cc1ccccc1)NC(=O)CNC(=O)[C@@H]1CCCN1C(=O)[C@@H]1CCCN1C(=O)[C@@H](N)CCCNC(=N)N)C(=O)O [Compound 1, (Leu^8)desArg^9BK, reference compound] | 0.07 | 0 | 0 | complete normalization | complete normalization | complete normalization | complete normalization | normal glycemia | – | – | – | – |
| CC(C)C[C@H](NC(=O)[C@H]1Cc2ccccc2CN1C(=O)[C@H](CO)NC(=O)[C@H](Cc1ccccc1)NC(=O)CNC(=O)[C@@H]1C[C@@H](O)CN1C(=O)[C@@H]1CCCN1C(=O)[C@H](CCCNC(=N)N)NC(=O)[C@H](N)CCCNC(=N)N)C(=O)O [Compound 17, D-Arg(Hyp^3, D-Tic^7, Leu^8)desArg^9BK] (H-[dR]RP[Hyp]GFS[dTic]L-OH; N-terminus and C-terminus assumed) | 0.09 | – | – | – | – | – | – | – | not to interact | – | – | – |
| N=C(N)NCCC[C@@H](N)C(=O)N[C@@H](CCCNC(=N)N)C(=O)N1CCC[C@H]1C(=O)N1C[C@H](O)C[C@H]1C(=O)NCC(=O)N[C@@H](Cc1cccs1)C(=O)N[C@@H](CO)C(=O)N1Cc2ccccc2C[C@@H]1C(=O)N1[C@H](C(=O)N[C@@H](CCCNC(=N)N)C(=O)O)C[C@@H]2CCCC[C@@H]21 [HOE140, D-Arg(Hyp^3, Thi^5, D-Tic^7, Oic^8)BK] | – | – | – | brought back to normal | significant reduction | reduced significantly | reduced only by half | did not show any effect | – | had no effect | – | – |
| N=C(N)NCCC[C@H](N)C(=O)N1CCC[C@H]1C(=O)N1CCC[C@H]1C(=O)NCC(=O)N[C@@H](Cc1ccccc1)C(=O)N[C@@H](CO)C(=O)N1CCC[C@H]1C(=O)N[C@@H](Cc1ccccc1)C(=O)O [desArg^9BK, Arg-Pro-Pro-G1y-Phe-Ser-Pro-Phe] | – | – | – | – | – | – | – | – | – | – | 0.48 | 0.22 |
